In PubChem BioAssay AID1345082 (National Center for Advancing Translational Sciences (NCATS), 2018):
Out of some 94,000 compounds screened, about 4,000 (4.3%) were called active. The inconclusive results got no clear call from the source; some entries with a clear call stand among them for comparison. Calls follow the shape of the dose curve; as a rule, active = well fitted inhibition curve with a large enough effect; inconclusive = small, poorly fitted or top-dose-only effect; inactive = no such curve, though single readings can be large or run the other way. A potency beside an inconclusive call is a rough fit, not a confirmed value.

Assay: Cytotoxic Profiling in NIH 3T3 Cell Line of Diverse Libraries Using Quantitative High-Throughput Screening; also: nearly all actives have a fitted effect of over 55% in size
Conditions: NIH 3T3 viability, CellTiter-Glo ATP luminescence, 48-72 h; series mostly up to 96.7 µM
Outline: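 Luminescent ATP readout (CellTiter-Glo, 10 min RT) after 48 or 72 hr compound exposure of NIH 3T3 cells seeded at 400 cells/well in 1536-well format; quantitative HTS.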
Potency is read from the fitted curve at half-maximal effect; tags tell the direction and shape of the fitted curve.

Compound | Potency
O=C(NCc1cccc(C(F)(F)F)c1)C1CCCN1Cc1ccc(-c2cncnc2)cc1 (centres undefined) | inconclusive: 35.5 µM [inhibitor, partial curve, poor fit]
O=C(NC1CCN(c2ccnc3ccnn23)CC1)c1ccccc1Cl | inconclusive: 28.2 µM [inhibitor, partial curve, poor fit]
O=C1NCN(Cc2ccc(Cl)cc2)C12CCN(CC1CC1)CC2 | inactive
CN1CC2(CCN(Cc3cccn3C)CC2)CC1C(=O)N1CCOCC1 (centres undefined) | inconclusive: 50.1 µM [inhibitor, partial curve, poor fit]
CCOc1ccccc1C1NC(=O)N(CC(=O)Nc2ccc(OC)c(Cl)c2)C2=C1C(=O)OC2 (centres undefined) | inconclusive: 70.8 µM [inhibitor, single point]
O=C(C1CCN(S(=O)(=O)c2cccs2)CC1)N1CCC(c2ccccc2)CC1 | inconclusive: 50.1 µM [inhibitor, partial curve, poor fit]
CC(C)N1CCN(C(=O)c2cc3n(n2)CC(c2ccc(Br)cc2)OC3)CC1 (centres undefined) | inconclusive: 50.1 µM [inhibitor, partial curve, poor fit]
Cc1cccc(C(=O)N2CCC(OC3CCN(Cc4ccccc4)CC3)CC2)c1 | inconclusive: 44.7 µM [inhibitor, partial curve, poor fit]
Cc1csc(NC(=O)C2c3ccccc3C(=O)N(Cc3ccccc3)C23CCCC3)n1 (centres undefined) | inactive
O=C(NCc1cccc(F)c1)[C@@H]1C[C@@H](c2ccc(F)cc2)N([S+](=O)([O-])c2ccccc2)C1 | inconclusive: 44.7 µM [inhibitor, partial curve, poor fit]
Cc1cn2nc(C(=O)NCc3cccc(Cl)c3)cc2c(N2CCSCC2)n1 | inconclusive: 39.8 µM [inhibitor, partial curve, poor fit]
CC(C)CNC(=O)C1CCc2sc(C(=O)N3CCCCCC3)cc2C1 (centres undefined) | inconclusive: 39.8 µM [inhibitor, partial curve, poor fit]
Cn1ccnc1C(=O)N1CCCN(S(C)(=O)=O)C(c2ccccc2)CC(=O)NCC1 (centres undefined) | inconclusive: 70.8 µM [inhibitor, single point]
Cc1nn2c(c1-c1ccccc1C(C)C)N(C(=O)c1ccn(C)n1)CCC2 | inconclusive: 112 µM [inhibitor, single point]
CCC(C(=O)NCCn1ccn2nc(-c3ccc(OC)cc3)cc2c1=O)c1ccccc1 (centres undefined) | inconclusive: 50.1 µM [inhibitor, partial curve, poor fit]
CN(c1cc(=O)c2ccnc(Nc3ccc(F)c(Cl)c3)c2o1)C1CCOCC1 | inconclusive: 31.6 µM [inhibitor, partial curve, poor fit]
Cc1ccc(CN2CCC3(CC2)CC(=O)N(c2ccccc2)c2ccccc2O3)cc1 | active: 39.8 µM
O=C(NCCc1ccccc1)C1CCc2nnc(C3CCN([S+](=O)([O-])c4ccccc4Cl)CC3)n21 (centres undefined) | inactive
O=C(NCc1ccc(F)cc1)c1cnc2n[nH]c(-c3ccccc3)c2n1 | active: 50.1 µM
CC(C)CNC(=O)N1CC(Oc2ccc(-c3noc(C4CCOCC4)n3)cc2)C1 | inconclusive: 2.51 µM [inhibitor, full curve, poor fit]
Cc1cc(-c2nccc3c(=O)cc(N(C)c4ccccc4)oc23)ccn1 | active: 10 µM
CC1=C(C(=O)OC(C)C)C(c2ccccc2C)N2C(CC(=O)NCC3CC3)=CSC2=N1 (centres undefined) | inconclusive: 50.1 µM [inhibitor, partial curve, poor fit]

Compound | Potency
CCOc1cc(C(=O)N2CCN(c3cc(-c4ccc(F)cc4)[nH]n3)CC2)cc(OCC)c1OCC | inconclusive: 44.7 µM [inhibitor, partial curve, poor fit]
Cc1c(CN(C)c2cc(C3CC(O)C3)nc(N)n2)[nH]c2ccccc12 (centres undefined) | inconclusive: 100 µM [inhibitor, partial curve, poor fit]
O=C(c1ccc2c(c1)OCO2)N1CCC(c2n[nH]c(=O)n2-c2ccccc2)CC1 | inconclusive: 70.8 µM [inhibitor, partial curve, poor fit]
Cc1nc(-c2ccc(F)cc2)n(Cc2cccc(C#N)c2)c(=O)c1CCO | inconclusive: 3.98 µM [inhibitor, full curve, poor fit]
O=S(=O)(c1cccc2nsnc12)N1CCC2(CCC2N2CCOCC2)CC1 (centres undefined) | inactive
O=C1CCc2cc(S(=O)(=O)CCC(=O)N3CCC(CCOc4ccc(F)cc4)C3)ccc2N1 (centres undefined) | inconclusive: 50.1 µM [inhibitor, partial curve, poor fit]
O=C1NCc2ccccc2CC12CCN(Cc1ccc(-c3ccccc3)cc1)CC2 | active: 25.1 µM
CCn1nc(C)c(-c2cc(C(=O)N3CCC(CCOc4ccccc4OC)C3)no2)c1C (centres undefined) | inconclusive: 50.1 µM [inhibitor, partial curve, poor fit]
CCOC(=O)C1=CN(CC(=O)Nc2c(C)cccc2C)S(=O)(=O)N=C1C | inactive
O=C(c1cccc(F)c1)N1CCC2(CC1)NC(=O)N(Cc1ccc(F)cc1)C2=O | inconclusive: 44.7 µM [inhibitor, partial curve, poor fit]
Cc1cccc(Cl)c1CNC(=O)c1c(C)noc1-c1ccccc1Cl | inconclusive: 50.1 µM [inhibitor, partial curve, poor fit]
CNC(=O)C1CCCN1Cc1ccc(-c2cc(C)cc(C)c2)cc1 (centres undefined) | inconclusive: 56.2 µM [inhibitor, partial curve, poor fit]
CC1(C)CN(C(=O)c2ccccc2N2CCC(=O)NC2=O)CC[C@]1(C)O | inactive
Cc1ccc(CN2CCC(N(CCC(C)C)C3CCOCC3)CC2)o1 | inactive
CCC(=O)NCc1cccnc1Oc1ccccc1OC | inactive
O=c1[nH]c(N2CCOCC2)nc2c1CCN(S(=O)(=O)c1ccc3c(c1)CCC3)CC2 | inconclusive: 44.7 µM [inhibitor, partial curve, poor fit]
COC(=O)NC1CCN(Cc2cccc(-c3ccccc3OC)c2)CC1 | inactive
COCCN1CCCCCC(O)c2cc(C(=O)NCCc3ccccc3)ccc21 (centres undefined) | inconclusive: 44.7 µM [inhibitor, partial curve, poor fit]
O=C1CC(c2ccccc2)N(C(=O)C2CC2)CCCN(C(=O)CC2CCCCC2)CCN1 (centres undefined) | inactive
CCCC(=O)N1CCn2c(nnc2[C@@H]2C[C@@H](O)CN2Cc2ccccc2)C1 | inactive
CN1CCCC2(CCN(C(=O)CCCOc3ccccc3)C2)C1=O (centres undefined) | inactive
COc1cccc(N2C(=O)NC(=NC3CCCC3)C23CCN(CCC(C)C)C3)c1 (centres undefined) | inconclusive: 31.6 µM [inhibitor, full curve, poor fit]

Compound | Potency
Cc1ccc(C(=O)N2CCN(C(=O)c3nnn4c3COC(c3ccc(C)cc3)C4)CC2)cc1 (centres undefined) | inactive
C[S+](=O)([O-])N1Cc2ccccc2CC2(CCN(CCc3ccccc3)C2)C1 (centres undefined) | inactive
CC(C)(C)C(=O)N1CCN(c2nccc(Nc3ccccc3Cl)n2)CC1 | inconclusive: 50.1 µM [inhibitor, partial curve, poor fit]
Cc1noc([C@@H]2CN(Cc3ccc(C)o3)C[C@H]2CO)n1 | inconclusive: 35.5 µM [inhibitor, single point]
COc1cccc(-c2cnc3n[nH]c(-c4ccc(F)cc4C)c3n2)c1 | inconclusive: 79.4 µM [inhibitor, partial curve, poor fit]
CC(NC(=O)c1cc(-c2ccc(F)cc2)cn1C)c1ccccn1 (centres undefined) | inconclusive: 44.7 µM [inhibitor, partial curve, poor fit]
NCCO[C@H]1C[C@@H](O)C12CCN(S(=O)(=O)c1ccc(F)cc1)CC2 | inactive
CC(C)c1ccc(OCC(=O)c2ccc3c(c2)N(CCCC(=O)N2CCOCC2)C(=O)CO3)cc1 | active: 31.6 µM
Cc1ccsc1C(=O)N1CCC(Oc2cccnc2)C1 (centres undefined) | inactive
Cc1noc(C)c1-c1cc2c(cc(C)n2C)c(-c2cccc(O)c2)n1 | inconclusive: 50.1 µM [inhibitor, partial curve, poor fit]
Cc1ncsc1C(=O)N1CC(CNC(=O)C2CC2)C2(C1)CN(c1ccccc1)C2 (centres undefined) | inconclusive: 89.1 µM [inhibitor, partial curve, poor fit]
O=C(CCc1ccsc1)N1CCc2ncnc(NC3CCC3)c2CC1 | inactive
O=C(C1CCCN1Cc1ccc(-c2cncnc2)cc1)N1CCN(Cc2ccccc2)CC1 (centres undefined) | inconclusive: 50.1 µM [inhibitor, partial curve, poor fit]
O=C(c1ccn[nH]1)N1CCC(N2C(=O)C3(CCCC3)C2c2ccccc2)CC1 (centres undefined) | inactive
COCCCn1c(=O)c(C(=O)NCC(F)(F)F)nc2cccnc21 | inactive
O=C(NCCCc1ccccc1)[C@@H]1CCCN1c1nccc(Nc2ccccc2Cl)n1 | inconclusive: 44.7 µM [inhibitor, partial curve, poor fit]
COc1cccc(-c2ccc(C(=O)N3CCC(NC(=O)Cc4cccc(Cl)c4)CC3)cc2)c1 | inconclusive: 14.1 µM [inhibitor, full curve, poor fit]
COc1ccc(Nc2ccnc(N3CCN(C(=O)N(C)C)CC3)n2)cc1 | inconclusive: 44.7 µM [inhibitor, partial curve, poor fit]
Cc1ccc(N2CC(c3noc(-c4ccc(F)cc4Cl)n3)CC2=O)cc1 (centres undefined) | inconclusive: 50.1 µM [inhibitor, partial curve, poor fit]
O=C1NC2(CCN(Cc3cccc4ccccc34)C2)Oc2ccccc21 (centres undefined) | inconclusive: 50.1 µM [inhibitor, partial curve, poor fit]
